Reference: patent US7455984B2, “Immunoreactive and immunotherapeutic molecules” (The Walter and Eliza Hall Institute of Medical Research, priority 1995, dated 2008)

Columns and labels:
[1] = tested on: PBMCs from IDDM at-risk and HLA-DR-matched controls; test: T-cell cytokine secretion assay, IL-10 by ELISA; conditions: media sampled after 2 days; 18 pairs; p=0.001
Protocol: (§1) In a second cohort of 18 paired IDDM at-risk and HLA-DR-matched controls, PBMCs indicated as per Example 3 were incubated with human proinsulin 24-36 and human insulin B chain 1-15 each at 0.5, 5 and 50 μg/ml under the conditions as per Example 3. In addition to harvesting cells for the measurement of proliferation by [^3H] thymidine uptake after 6 days, as per Example 3, incubation media above the cells was sampled after 2 days for the measurement of IFN-γ and interleukin-(IL-) 10 by standard ELISA methods.

[2] = tested on: PBMCs from IDDM at-risk and HLA-DR-matched controls; test: T-cell proliferation ([3H]thymidine uptake after 6 days), second cohort of 18 pairs; format: cell-based, human; conditions: p=0.003
[3] = tested on: PBMCs from IDDM at-risk and HLA-DR-matched controls; test: T-cell cytokine secretion assay, IFN-γ by ELISA; conditions: media sampled after 2 days; 18 pairs; p=0.005
Protocol: as §1

FFYTPKTRREAED [Proinsulin] was tested, and the “IL-10 secretion, IDDM at-risk versus matched control subjects” value [1] was “significantly increased”, the “Proliferative response of IDDM at-risk subjects versus matched control subjects” value [2] was “significantly greater” and the “IFN-γ secretion, IDDM at-risk versus matched control subjects” value [3] was “significantly increased”.
